# In the supplement of paper PMC3724861:
# Some of the results follow.
# Tested on: T1, Caupolican (Caup) homeodomain DNA-binding domain
# T1 sequence: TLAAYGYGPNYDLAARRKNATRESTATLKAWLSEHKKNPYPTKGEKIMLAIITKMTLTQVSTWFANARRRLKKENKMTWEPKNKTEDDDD
# Assay: PBM E-score (8-mer, recovered from the published 9-mer minima) (E-score (dimensionless, -0.5 to 0.5)); Drosophila protein; higher = stronger relative binding preference, active = 0.31 or more
# Procedure, shortened: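 Caup's homeodomain DNA-binding domain (residues 214-303) was made by in vitro transcription and translation and applied at 100 nM to custom-designed protein binding microarrays. Each value is an enrichment score that gives relative binding preference for a short DNA word, with higher meaning stronger. The 8-mer values were recovered from published 9-mer scores, each of which was the minimum of its two constituent 8-mer scores. A cutoff of 0.31 marks candidate sites.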
row,Sequence,PBM E-score
1,GGAAGTGA,inactive: 0.0155
2,CAATCACC,inactive: -0.0198
3,AAGATGAC,inactive: 0.0886
4,CACACGGC,inactive: -0.113
5,AAAGATGA,inactive: 0.107
6,CAGTATAG,inactive: 0.0614
7,ACTAAATC,inactive: 0.0459
8,GCGGGAGA,inactive: -0.199
9,CTGTTAGC,inactive: -0.0813
10,TCATCCAA,inactive: 0.122
11,AATGAACT,inactive: 0.0147
12,GCAATTGA,inactive: 0.012
13,GCCTGCGA,inactive: -0.178
14,CGCTTTAC,inactive: 0.0463
15,GCCAAGGA,inactive: -0.114
16,AACGGGGA,≥ -0.0432
17,CGCGGACA,inactive: 0.0764
18,CGTGTTTA,active: 0.319
19,ATGTGCTG,inactive: 0.107
20,AGTACTGC,inactive: -0.00909
21,GTCTGTGA,inactive: 0.106

row,Sequence,PBM E-score
1,AGGAACCA,inactive: 0.036
2,CAAGAAAG,inactive: 0.0553
3,CTTGTATA,active: 0.353
4,CCACCCCC,inactive: -0.291
5,CCAATCAC,inactive: 0.0106
6,TCCCGGCA,inactive: -0.143
7,TCTAACAA,inactive: 0.177
8,GTTGTGTA,inactive: 0.298
9,GAGTCGTA,inactive: 0.0466
10,ACTGAATC,inactive: 0.0151
11,GGCCCGTA,inactive: -0.0773
12,AATTCTAT,inactive: 0.124
13,CCTTTGCG,inactive: -0.0869
14,AGGAATCA,inactive: 0.0777
15,AGCCCTGA,inactive: -0.125
16,CTGAAATC,inactive: -0.0582
17,CTCTAGGA,inactive: -0.117
18,AAAAAAGG,inactive: -0.0979
19,AATTGTAT,inactive: 0.228
20,CACTTCCC,inactive: -0.138
21,ATTTTGGA,inactive: 0.102

row,Sequence,PBM E-score
1,TGTCAAAA,inactive: 0.261
2,ACAGTGTC,inactive: 0.144
3,AGGAAATA,inactive: 0.128
4,ACACTCAG,inactive: -0.0055
5,CTTCACCA,inactive: -0.177
6,AGTCATGC,inactive: 0.041
7,CCCACGTA,inactive: -0.0338
8,CCGGCCGC,inactive: -0.328
9,CCGTACGA,inactive: 0.111
10,CAGGACAA,inactive: 0.208
11,GAAAATCA,inactive: 0.141
12,ATACGGCG,inactive: -0.0679
13,AATTTCGC,inactive: -0.00371
14,ATAGCATC,inactive: 0.0469
15,GATCCGGA,inactive: -0.028
16,ATATTTAG,inactive: 0.0428
17,CATAAAGC,inactive: -0.0633
18,GGGTTATA,inactive: 0.0172
19,ATACACAG,inactive: 0.193
